# Reference: the supplement of paper PMC4466236
# The full ranking holds about 33,000 sequences; the median of “E-score (dimensionless, -0.5 to 0.5)” is about -0.058, and the highest 2% start at about 0.35. The list shows a part of the results.
# Tested on: MvaT
# Assay: PBM 8-mer E-score (mean of HK and ME arrays) (E-score (dimensionless, -0.5 to 0.5)); higher = stronger relative binding preference; most listed sequences are background and not binding sites
# Outline: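 Reported values are rank-based E-scores, taken as the mean of two universal arrays and parsed with a custom script. Each 8-mer score falls between -0.5 and 0.5. The arrays, ME and HK, were double-stranded 60-mers with a constant 25-mer primer region and a variable 35-mer region covering all 8-mers. They were probed, by an earlier protocol, with full-length P. aeruginosa MvaT carrying an N-terminal glutathione S-transferase fusion.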
row,Sequence,PBM 8-mer E-score
1,ATTGAGGG,-0.00549
2,AGGGTTTA,0.0535
3,TCTTTAAA,0.227
4,CTTCGTTA,0.0633
5,CAGGTTAG,-0.252
6,ATATCTAG,0.252
7,CCGCTCCC,-0.366
8,AGACTCAC,-0.088
9,ATAAGTAT,0.356
10,GCGCGTCC,-0.245
11,AGCCCAGA,-0.208
12,CCTAGCCG,-0.224
13,CTAAAAAC,0.131
14,ATCACCCC,-0.315
15,AACTTATC,0.351
16,CGTTAAAG,0.186
17,CGTGCTTC,-0.0848
18,CCACGTAG,-0.1
19,AAACTATG,0.21
20,ACGTTAAA,0.256
21,CCCTGCGC,-0.267
22,TCGTGTCA,-0.0596
23,ACTGATTA,0.24
24,GAGACTGC,-0.111
25,AAGGGGCG,-0.336

row,Sequence,PBM 8-mer E-score
1,AAGACCAA,0.0721
2,GCGCTTCA,-0.11
3,AACCCCCA,-0.248
4,CATTTCTC,0.154
5,TGAGAAAA,0.166
6,GCACTGCC,-0.189
7,ATGTGGTG,0.122
8,CGTTATAG,0.2
9,GCGGCTCA,-0.298
10,AAACCGAT,0.0459
11,CAGCGGCC,-0.16
12,CGTACTTC,0.0831
13,ATAGGCAG,0.0245
14,ACATATCG,0.243
15,TACCCGAA,-0.0783
16,CGCACCTA,0.0274
17,ACAACAGA,0.0232
18,GAGGTTCA,-0.251
19,GAGCTCAA,-0.146
20,ATCGGGGA,-0.213
21,AGCGGATA,0.113
22,CGGCTCTC,-0.244
23,CGGCGCCC,-0.28
24,GGAATACA,0.138
25,ACCAAGAG,-0.187

row,Sequence,PBM 8-mer E-score
1,CTAACAAG,-0.0335
2,ACGTTCCT,-0.057
3,GGCTAGAA,-0.0418
4,ACGCCCCT,-0.292
5,ACGACCAC,-0.0476
6,AGAGGCGC,-0.328
7,AGAGTGAA,-0.0581
8,CCGACAGA,-0.143
9,CGCCTCTA,-0.259
10,CGAAGCTA,-0.123
11,GCAACAAA,0.249
12,ACATTACG,0.137
13,ATGCTTGC,-0.109
14,CCCCACAA,-0.318
15,CTGTACAG,-0.186
16,AGGATCCT,-0.282
17,CTTTGGGA,0.000804
18,ATCTGCTG,0.015
19,ATATGCGA,0.244
20,GCGAACAC,-0.0851
21,TAACTCAA,0.225
22,CCTTGCAG,-0.228
23,GATGACAA,0.11
24,AGGCGCTC,-0.23
25,GGCCTCAC,-0.339

row,Sequence,PBM 8-mer E-score
1,AAACTGTG,-0.0285
2,CTCACCTC,-0.183
3,CTCCCCCA,-0.302
4,CCAGGGGC,-0.357
5,CATTGTGA,0.0307
6,ACGGAGGA,-0.349
7,CCACATTA,0.156
8,CGCGAGTA,0.0694
9,AACGACGG,0.0335
10,CCTCGGGC,-0.184
11,ACTGACTC,-0.135
12,GATCCATA,-0.0716
13,GAGGTTCC,-0.286
14,CCTCTTGC,-0.0881
15,CTGAGGTC,-0.412
16,CAAGTGAC,-0.0568
17,CTGGGTTA,0.155
18,ACCCGGTA,0.0126
19,TGCTTGAA,-0.175
20,GAACGCCA,-0.171
21,AATTAACC,0.262
22,CATAGAGC,-0.176
23,AATGCACC,-0.137
24,CTGGAAGC,-0.204
25,AAAGCTAT,0.0863

row,Sequence,PBM 8-mer E-score
1,ACATTACA,0.253
2,ACCAGTAA,0.14
3,AAAGGCCA,-0.0662
4,AGCAACGC,-0.265
5,ATAAGAAT,0.292
6,ATACGACA,0.1
7,AATGCCTA,0.0154
8,CGCCAATA,0.0436
9,ACTTACCT,0.112
10,CGACGGCG,-0.209
11,CTAGGCGC,-0.17
12,AGTGAGAC,0.0215
13,TCATGGGA,-0.0976
14,GAAGTAAA,0.155
15,AGTAGTAT,0.249
16,GGACGTAC,-0.138
17,AACTTGAT,0.242
18,CTATACCA,0.0687
19,CGAGTCAG,-0.278
20,CAGCTGAG,-0.163
21,CACTCCAG,-0.196
22,ACAGCAGC,-0.0972
23,GACCATGA,-0.214
24,CTAGTCGA,-0.122
25,ACCAGACA,-0.0988

row,Sequence,PBM 8-mer E-score
1,TGAATCCA,0.084
2,CTGAACCA,-0.178
3,CTTTCAGA,-0.0594
4,AAGGCTGC,-0.172
5,TGCAGACA,0.0205
6,AAAAAGTC,0.17
7,AACGACAT,-0.0137
8,CAACGAGC,-0.147
9,GTCCAAAA,0.0635
10,AATCGTGC,-0.0828
11,GAGGAGCA,-0.388
12,CGGTCTAA,0.0875
13,CGGGCGTA,-0.101
14,TCTTGACA,0.0114
15,ACTAAGTG,0.0826
16,GCAAAGCC,-0.238
17,AAAACTAG,0.184
18,CCAGAACA,0.0165
19,ATCGTTTC,0.0328
20,GCGTTCTA,-0.0806
21,AAAGATGG,0.12
22,CATTATCC,0.235
23,CACGGTAC,0.0167
24,CCTGCACC,-0.285
25,GAAGTATA,0.263

row,Sequence,PBM 8-mer E-score
1,GAGCATGA,-0.169
2,AAATAGCC,0.14
3,CAGATCCG,-0.177
4,GGCAGCAC,-0.232
5,CTTGGAAC,-0.0173
6,CACAACTG,-0.0536
7,CTATACAA,0.202
8,TAATAATA,0.477
9,ATTGGTGC,0.00889
10,GCGGCGCA,-0.101
11,GAACAAGA,-0.0658
12,GGTCCGGA,-0.142
13,CGATGTTC,-0.024
14,TAGGCTCA,-0.042
15,CAGCACCA,-0.159
16,GTTCTGAA,0.0546
17,CGGAGCGC,-0.207
18,GGCAGACC,-0.218
19,AGTGGCGC,-0.268
20,GCGTACCA,-0.241
21,CGTCAGAA,-0.00609
22,CTCTTTCA,0.00719
